Reference: the supplement of paper PMC3334620
In all, about 33,000 sequences were measured (“E-score (-0.5 to 0.5)”: median about -0.012, highest 2% from about 0.29 on). Some of the results follow.

What follows are sequences tested against T1, Ybr033w (UniProt P38073) (assay: PBM E-score (8-mer binding enrichment) (E-score (-0.5 to 0.5)); higher = stronger / more preferred TF binding; most listed sequences are background and not binding sites). Details: protein concentration: 200 nM; construct: GST-full length.
T1 sequence: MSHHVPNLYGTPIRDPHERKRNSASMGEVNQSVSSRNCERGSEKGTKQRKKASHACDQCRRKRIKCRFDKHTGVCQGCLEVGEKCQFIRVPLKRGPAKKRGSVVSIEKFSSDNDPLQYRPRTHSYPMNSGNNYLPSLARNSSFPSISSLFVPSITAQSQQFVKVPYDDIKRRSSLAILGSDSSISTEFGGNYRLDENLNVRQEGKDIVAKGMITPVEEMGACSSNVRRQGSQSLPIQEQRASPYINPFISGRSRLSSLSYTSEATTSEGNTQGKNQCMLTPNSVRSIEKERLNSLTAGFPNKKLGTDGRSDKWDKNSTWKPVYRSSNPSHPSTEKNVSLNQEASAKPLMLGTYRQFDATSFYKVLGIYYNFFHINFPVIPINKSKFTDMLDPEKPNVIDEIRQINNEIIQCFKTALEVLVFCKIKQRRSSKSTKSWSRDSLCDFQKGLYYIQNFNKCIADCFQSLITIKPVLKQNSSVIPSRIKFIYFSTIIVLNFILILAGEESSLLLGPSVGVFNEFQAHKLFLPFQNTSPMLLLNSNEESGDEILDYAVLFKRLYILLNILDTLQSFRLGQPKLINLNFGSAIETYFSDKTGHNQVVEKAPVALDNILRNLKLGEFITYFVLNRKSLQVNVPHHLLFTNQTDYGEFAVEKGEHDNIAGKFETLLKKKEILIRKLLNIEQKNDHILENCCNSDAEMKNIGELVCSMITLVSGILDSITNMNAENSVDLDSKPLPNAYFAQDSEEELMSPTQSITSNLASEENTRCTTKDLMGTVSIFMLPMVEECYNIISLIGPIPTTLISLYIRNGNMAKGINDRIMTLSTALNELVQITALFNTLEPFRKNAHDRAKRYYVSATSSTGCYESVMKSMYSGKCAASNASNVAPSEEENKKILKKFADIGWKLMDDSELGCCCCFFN
Method in brief: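 Full-length yeast transcription factors or their DNA-binding domains, GST-tagged and expressed with PURExpress, were applied at about 100-200 nM to universal all-10-mer Agilent arrays. These arrays had been made double-stranded by primer extension on fresh or once-stripped slides. Detection used fluorescent anti-GST, normalisation used masliner, and E-scores for ungapped eight-base words pooled with reverse complements came from the Universal PBM Analysis Suite.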

Row | Sequence | PBM E-score
1 | AGACCAGA | 0.118
2 | AAGCGCAA | 0.172
3 | GAACTGCC | -0.136
4 | ATGGAGTC | 0.127
5 | GACCGATA | 0.111
6 | ATCTGCGA | -0.152
7 | CCCGATCG | -0.189
8 | ACGCAACT | 0.075
9 | CTTGGATC | 0.0879
10 | CGGTGGAA | 0.0562
11 | AGGGAAAG | -0.0954
12 | AACTTAAG | 0.0775
13 | CAAGTCAG | -0.068
14 | GAAGATAA | 0.319
15 | AGACACCG | -0.00977
16 | TCATCAGA | -0.0315
17 | ACCCATGC | -0.104
18 | GGTGGTAC | -0.231
19 | AACCAACG | -0.0876
20 | TATTTCGA | 0.357
21 | CCTCCCTA | -0.225
22 | CTCAGCTC | -0.0962
23 | GATGGAGA | -0.0673
24 | ATGACAGC | 0.0533
25 | GAGGAAGC | -0.209

Row | Sequence | PBM E-score
26 | CTCGATCC | -0.127
27 | CTTTAAGC | 0.0527
28 | ACGGGGCC | -0.335
29 | CTCTACCC | -0.12
30 | GGGAACAC | 0.0998
31 | AAGATCTC | 0.0171
32 | CGACCAAC | -0.0674
33 | AATACTAG | 0.191
34 | AAGTCACT | 0.018
35 | CACACGTC | -0.0938
36 | CAGATGTC | 0.0259
37 | ACTCCCGG | -0.0371
38 | AACGGAGC | -0.286
39 | CCCCGTAC | -0.341
40 | GGCTGCCA | -0.122
41 | CGCGATCC | -0.148
42 | GAGATCCA | -0.0406
43 | GACAATGC | -0.0133
44 | TAGTTATA | 0.215
45 | ACACGAAA | 0.233
46 | ACGGTGCG | -0.129
47 | GTCAATTA | 0.0415
48 | AGAGATTC | 0.112
49 | GGCAACAA | 0.0925
50 | AGATCTGG | -0.109

Row | Sequence | PBM E-score
51 | AATTCCGA | 0.296
52 | GTCACTGA | -0.193
53 | CATCTTCG | 0.0785
54 | ACATGCCT | -0.0518
55 | ATTTCACA | 0.151
56 | TATTGTCA | 0.193
57 | ATTCTGAG | 0.0635
58 | ACCGCCGA | 0.00768
59 | CTTACAAA | 0.107
60 | GTGCGAAA | 0.0668
61 | GTGGAAAA | 0.298
62 | AGACCACG | -0.163
63 | AAACAAGA | 0.197
64 | AGGACTTC | -0.0252
65 | GGTGAGTA | -0.00821
66 | AGCAGCGC | -0.0908
67 | CAAAACCC | 0.0145
68 | AGTAGCAA | 0.152
69 | CACTCATC | 0.0289
70 | CCAGCGTC | -0.332
71 | AGACCCAA | -0.132
72 | CGCGCCAC | 0.011
73 | ACACACTC | 0.171
74 | AACGCCTA | -0.00852
75 | CATGAATA | -0.00235

Row | Sequence | PBM E-score
76 | AAGTGTGG | 0.0881
77 | CATCGACA | -0.105
78 | ATCACACA | 0.215
79 | ACCCCGAG | -0.201
80 | CGGGAACG | -0.176
81 | GGAGCGGA | -0.102
82 | AGGCCTGC | -0.154
83 | AGTCCTCG | -0.173
84 | ACCATTGG | 0.0393
85 | ACTCCCTC | -0.264
86 | ACTGACGG | -0.0255
87 | GACGCATA | 0.0181
88 | CCAGAGCG | -0.22
89 | ACGTCTAC | -0.0619
90 | AAATCCCC | -0.137
91 | ATGCTCGC | -0.00437
92 | AGCCTGAA | -0.0308
93 | CTAACTAA | 0.196
94 | AACTTGGC | 0.119
95 | GTGGGCAA | -0.0794
96 | AAGTCGCC | -0.246
97 | CAGGCAAA | 0.0423
98 | ATCGGAAC | 0.0632
99 | ACCCCACG | -0.301
100 | CCTGGACC | -0.203

Row | Sequence | PBM E-score
101 | GCGCTAAC | 0.00302
102 | ATGCTAAC | 0.0627
103 | ACTCCGAC | -0.0833
104 | AGACCGCT | -0.221
105 | CCACCTAA | 0.0562
106 | CATAACAA | 0.226
107 | ACGGGTGG | -0.171
108 | CTCAGAAG | -0.208
109 | AAAATTGC | 0.069
110 | CAACTTGC | -0.0839
111 | GTGGGAGA | -0.234
112 | CGACCGAG | -0.062
113 | ATGGTTCC | 0.135
114 | CAATGGTG | -0.283
115 | CATCGAGA | 0.0222
116 | AAAATGTC | 0.177
117 | CGCGCACA | -0.014
118 | AGCTCTGG | -0.197
119 | GTTTCAGA | 0.0593
120 | GACGTACA | 0.00296
121 | AGAGAGTC | 0.00587
122 | AGCGAGCC | -0.124
123 | ACCCAAGA | -0.128
124 | CCGTCGGC | -0.215
125 | ATAGTAAA | 0.277

Row | Sequence | PBM E-score
126 | TGATCAAA | 0.076
127 | CAACCCGG | -0.227
128 | GAAATAGC | 0.0527
129 | CTGCGGCA | -0.196
130 | CGTTACCC | -0.353
131 | CCAGTCAC | -0.176
132 | AACCGCCA | -0.112
133 | CCGGCCGA | -0.205
134 | CCATAGCC | -0.181
135 | CAGCCCCG | -0.216
136 | TAGCGTCA | 0.0632
137 | ATCGGCAT | -0.0727
138 | CACTCTTC | 0.00135
139 | GTTAATGA | 0.12
140 | CACGCAGG | 0.0693
141 | AAGACATC | -0.0802
142 | CGACAGCC | -0.0237
143 | ACCCTCAC | -0.289
144 | AAACCAGG | -0.0313
145 | ATAGCTGA | -0.196
146 | GATTTCCA | 0.0676
147 | AAGCTAGA | -0.0214
148 | CGCACCTC | -0.198
149 | GGAAGATA | 0.274
150 | CAGTTGCA | 0.0331

Row | Sequence | PBM E-score
151 | GTAGCAAA | 0.238
152 | CATGTTAC | -0.0517
153 | CACCCCAG | 0.0316
154 | AGGTTGGG | -0.0909
155 | AATCCACA | 0.195
156 | CCGTCAAC | -0.0408
157 | AGTATGAC | 0.0908
158 | AATATCCA | 0.203
159 | TCACCCCA | 0.0736
160 | GCGATGAC | -0.171
161 | GAGTGGAC | -0.0216
162 | CCGTGATA | -0.0818
163 | AAAATGTG | 0.0163
164 | ATATAGAT | 0.286
165 | GTCGTGTA | 0.103
166 | AACCCACG | -0.227
167 | GCGCTACA | -0.144
168 | AAATTCCC | 0.0364
169 | AATGGCGT | -0.116
170 | AAATGTCC | -0.185
171 | GGGGGATA | -0.293
172 | AAGGCACG | -0.0392
